In the supplement of paper PMC12632987:
In all, about 4,500 sequences were measured (“median log2 fold change of GCK-ALFA target abundance (FLAG IP / Myc IP barcode read proportion)”: median about 0.078, lowest 2% from about -0.6 on). Some of the results follow.

B1: GBRAP_74_6542 (protein)
chain: MHPKIKAALEAAEAGDVEKLVEILAEMTDEEIAEMTSEQLLKIFKTIEENFDTLTDEQKEKVADFVARVADVHDFRDLSPEALKAFQAVLAKLYQWELEK
B2: GBRAP_53_6398 (protein)
chain: AAAAIAAGLAELEALIAEVEADPTLDAADVAARAGALLKALAAAGAPEAELTALARRLAAAVAARGLGVEVSTALAATAAAAGREAVAAVFTEAAVEDLE
B3: GBRAP_160_4203 (protein)
chain: EEKVEEIIKELREEAERVIEELDEVSVEEAANFAAVEFGEVLMEAVEMGIENEKILEIIDKAADEVVKYLKENKDAPVEELKKKIREIVEEAIKKIKEEA
B4: GBRAP_83_6993 (protein)
chain: KEKIVVAAPGDRLLEAAEAAIDLSKEYGYEVSLEFLATPEDRERLLEAVRKLAEAGLETEVRVLLEGVTEEEAEELREELERIAKEHGVNIKVEVEVVEL
B5: GBRAP_35_5623 (protein)
chain: NTDKEIAEAVVAVLEDTLLAKDTVPADTFIDTAIKVARLGIEVAKELKEYKENAKKILEAVEKLLKAAKERAKETGAPEEKLKEIEKLLKEVEELKKKLE
B6: GBRAP_52_6370 (protein)
chain: MLEEALEKLREALEAVLAGKEEEAREILREIVENYSEETILEAFKRLAEELKEGTLEEAEAFLELALMLSDIMDEEGRSEAVGDEIEAIAARTYMEILER
B7: GBRAP_184_5039 (protein)
chain: KIKERVIEAENKEELKKKLEELKEEMKNFKGELILHVKSPKFTKEMVELLMKTLKEMLEEGYISSATVGLDGDMTEEVVDLAVKLADEAGIKVVLALDEE
B8: GBRAP_14_3794 (protein)
chain: MEEIEKILRETIEEIMELISDLPEEVLRELRERLEEIAEETLRRIKETGDIDEAMEEGRERAVEATREITADLPEERRAEAVAIVRVELDNAEEEIEEKY
B9: GBRAP_43_5747 (protein)
chain: DEELVLGAVEFTRLAAEEDEISDETVLKAFKAALDLMADTGVQLKEELIEAARALAKRLSDEQVEELIKYVKERAKANPKVKETFEAVIKVLEEELEKRK
B10: GBRAP_11_2885 (protein)
chain: KKEKLLELAKIAEEIVKAIEKLLKEGTDDEELLKKIKELLEELRKLTKEYADKGSQKLTEIAVELFEKALKDPENREEYLKELKAAVSVLEGDYLLEAEE
B11: GBRAP_160_4529 (protein)
chain: DEFLKKAEKLIEDAAEEAIKLIKGESTEERITIISMEFGSVAMEFAEDERASDEMVDVVLEEADKVIDTLKKNPNLSEEEIKALIEEARDKIIEKLRELY
B12: GBRAP_125_2963 (protein)
chain: SEEEDLKALATLAKALGFDEDDVAEAVELARKFGIKNTVIALFLAEGYEEVAELVEKLTEEEVREVLKELAKEIEANPDLTPEEVVELAKKLLEKKIAKK
B13: GBRAP_83_6927 (protein)
chain: KEKIVVAANDDNIDEAFEAAVDLQKEEGYEVDVEVMITPEGIEKLKKSFEKMAKAGWNGELDILLFGATEEEAKKLKEELEKIAKEYGVNVKINVEVVEP
B14: GBRAP_166_4976 (protein)
chain: SEEEIVKEVKAYIDELAEKMKTADHEEKLELLAEAAEKIREAREAGISPENLRELITYLIEKALAVGLTLSEVEGALTIIAELDEEEIDLLDEAIAEVKA
B15: GBRAP_160_4645 (protein)
chain: SESLEEMKEIIKEYSEIVLEEIDEGNMENALAAMRMMVGDLVLEADEDPRFSEEDVDKIDEKGDEFVEELEKNKNESKEKLKAIVKKAEEELKKLLEEAY
B16: GBRAP_74_6506 (protein)
chain: MEELVAELDAAIAAGDFVRAAEIAKEILAKADAETAVAAATRLLTAAVANLDKLTPEELDALVDLIVELYERIPDEKITDELAANAAKVVAAAVAAEKAR
B17: GBRAP_157_3953 (protein)
chain: EVLYRTFVVTPEDTLEEVRARAHAIAAEIKAAGVPAVLVIVVSKEDEELAESVADEIEAILGYETGQDVEVIRKILPASASREEAEAEAERLLEEARAAR
B18: GBRAP_160_4112 (protein)
chain: NEELLKLYKDGAEDLKETIELIKDLSNEEAGVLALVTLGEILIDFSEHDENFEELEELAEKQMEKIRETAKTDPSKLKEVSLEALEEMRKALEEKAKELE
B19: GBRAP_160_4038 (protein)
chain: NEKLEKLAKFAEEVFKEAEELIKGTTVEEAAVIVDVATGEIIMEAVELGIDNDELEDFIDEIGDEAVAYLLAHPDLTEEEIQALVKEAKEKILKKIKEAS

target: GABARAP, O95166; experiment: median log2 fold change of GCK-ALFA target abundance (FLAG IP / Myc IP barcode read proportion) (log2 ratio); each designed protein is fused to an ALFA-tag nanobody in HEK293 cells to bring the named protein to FLAG-tagged glucokinase (GCK); Myc marks an untargeted standard; higher = target protein stabilised (more abundant); conditions: target protein: 3xFLAG-MCP-GCK-ALFA reporter; HEK293 landing pad (RPLP)
Sequence (O95166 whole entry, the tested form may be a part): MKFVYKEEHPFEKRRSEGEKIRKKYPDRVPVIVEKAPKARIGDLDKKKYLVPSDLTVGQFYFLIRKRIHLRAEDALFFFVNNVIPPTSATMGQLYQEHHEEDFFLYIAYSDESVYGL
Procedure, shortened: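 Binders fused to an ALFA nanobody were recombined as a library into HEK293 landing-pad cells, which were induced with 2 μg mL^−1 doxycycline and then transfected to express a FLAG-tagged target and a Myc-tagged standard. After 48 h, circular RNA barcodes recovered by anti-FLAG and anti-Myc immunoprecipitation of lysates were reverse transcribed, amplified and sequenced. Each binder's target abundance is the median log2 ratio of FLAG to Myc barcode read proportions, from barcodes present at ≥10^−7 in both replicates, binders carrying ≥3 barcodes per replicate, a 10^−6 pseudocount and pooled replicates.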

Binder	median log2 fold change
B1	-0.0821
B2	0.254
B3	0.00649
B4	0.147
B5	-0.669
B6	-0.203
B7	0.0381
B8	0.104
B9	0.0669
B10	-0.067
B11	0.0322
B12	-0.725
B13	-0.201
B14	-0.00235
B15	-0.245
B16	-0.0484
B17	0.303
B18	-0.0772
B19	-0.621
